{"source": "PubChem BioAssay (NCATS)", "key": {"[1]": {"assay": "Primary redox qHTS assay for identification of artifact compounds. (AID 1845223)", "how_it_was_run": "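Amplex Red (25 uM) and HRP (250 mU/mL) in HBSS, with compounds for 15 min, then 250 uM DTT for 30 min, room temperature, dark. Fluorescence 525/598 nm read; normalized to DMSO and 10 uM DA3003; Hill fit.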"}, "[2]": {"assay": "Quantitative High-Throughput drug screen in 47 multiple myeloma cell lines against the NCATS MIPE library collection: ARP1_JJKsccF8 cell viability assay (AID 1918928; also: nearly all actives have a fitted effect of over 40% in size)", "settings": "ARP1 myeloma cells viability, CellTiter-Glo ATP, 48 h; viability: at 45.8 µM (top of the series)", "how_it_was_run": "(§1)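 ATP readout (CellTiter-Glo), 48 h drug incubation, 37 °C/5% CO2, 500 cells per well; normalisation to DMSO (100%) and media-only (0%) controls.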"}, "[3]": {"assay": "Quantitative High-Throughput drug screen in 47 multiple myeloma cell lines against the NCATS MIPE library collection: FR4_PLB cell viability assay (AID 1918924)", "how_it_was_run": "(§2)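 CellTiter-Glo luminescence (ATP) after 48 h compound exposure, 37C/5% CO2; 500 cells/well; MIPE 4.0 approved/investigational drugs pinned in; DMSO = 100%, media only = 0% viability.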"}, "[4]": {"assay": "Quantitative High-Throughput drug screen in 47 multiple myeloma cell lines against the NCATS MIPE library collection: Delta47_JCRB cell viability assay (AID 1918925)", "settings": "Delta47 myeloma viability, CellTiter-Glo ATP, 48 h; viability (% of DMSO): at 45.8 µM (top of the series)", "how_it_was_run": "(§3)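 Inhibition of cell viability is measured here. Each line was plated at 500 cells per well, treated with MIPE 4.0 drugs, kept 48 hours at 37C, then assayed for ATP content by CellTiter-Glo luminescence.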"}, "[5]": {"assay": "Quantitative High-Throughput drug screen in 47 multiple myeloma cell lines against the NCATS MIPE library collection: EJM_DSMZ cell viability assay (AID 1918926)", "how_it_was_run": "as §3"}, "[6]": {"assay": "Quantitative High-Throughput drug screen in 47 multiple myeloma cell lines against the NCATS MIPE library collection: Karpas620_DSMZ cell viability assay (AID 1918959)", "how_it_was_run": "as §2"}, "[7]": {"assay": "Quantitative High-Throughput drug screen in 47 multiple myeloma cell lines against the NCATS MIPE library collection: KMM1_JCRB cell viability assay (AID 1918960)", "settings": "KMM1 myeloma viability, CellTiter-Glo ATP luminescence, 48 h; viability (% of DMSO): at 45.8 µM (top of the series)", "how_it_was_run": "as §1"}, "[8]": {"assay": "Quantitative High-Throughput drug screen in 47 multiple myeloma cell lines against the NCATS MIPE library collection: AMO1_DSMZ cell viability assay (AID 1918927)", "settings": "AMO1 myeloma cells viability, CellTiter-Glo ATP luminescence, 48 h; series mostly up to 45.8 µM", "how_it_was_run": "as §3"}}, "note": "This list was built around the results that the source calls inconclusive (neither active nor inactive); the mix of calls is not that of the screen. For part of these data: Potencies of inconclusive entries are left out as doubtful fits. Active and inactive are the calls of the source. Calls follow the shape of the dose curve; as a rule, active = well fitted curve in the direction sought with a large enough effect; inconclusive = small, poorly fitted or top-dose-only effect, or another doubt; inactive = no such curve, though single readings can be large; an effect the other way counts as inactive or inconclusive. Potency is read from the fitted curve at half-maximal effect; tags tell the direction and shape of the fitted curve.", "data": [{"smiles": "CC[C@@H](C)[C@H]1C(=O)O[C@H](C(C)C)C(=O)N(C)[C@@H](C(C)C)C(=O)O[C@H](C(C)C)C(=O)N(C)[C@@H](C(C)C)C(=O)O[C@H](C(C)C)C(=O)N1C", "values": [{"measurement": "Potency", "setting": "[1]", "result": "inactive"}]}, {"smiles": "CC[C@H]1CN2CC[C@H]1C[C@@H]2[C@@H](O)c1ccnc2ccc(OC)cc12", "values": [{"measurement": "Potency", "setting": "[1]", "result": "inactive"}]}, {"smiles": "C[C@@]1(C(=O)O)CC[C@]2(C)CC[C@]3(C)C4=CC(=O)c5cc(O)c(O)cc5[C@]4(C)CC[C@@]3(C)[C@@H]2C1", "values": [{"measurement": "Potency", "setting": "[1]", "result": "inconclusive [activator, partial curve, poor fit]"}]}, {"smiles": "O=C(NCCN1CCC2(CC1)C(=O)NCN2c1cccc(F)c1)c1ccc2ccccc2c1", "values": [{"measurement": "Potency", "setting": "[1]", "result": "inactive"}]}, {"smiles": "CC(=O)O[C@H]1CC[C@@]2(CI)C(=CC[C@@H]3[C@@H]2CC[C@]2(C)C(=O)CC[C@@H]32)C1", "values": [{"measurement": "Potency", "setting": "[1]", "result": "inconclusive [activator, partial curve, poor fit]"}]}, {"smiles": "COc1ccc(N(C(=O)Oc2c(C)cccc2C)c2ccnc(Nc3ccc(N4CCN(C)CC4)cc3)n2)c(OC)c1", "values": [{"measurement": "Potency", "setting": "[1]", "result": "inactive"}, {"measurement": "Potency", "setting": "[2]", "result": "inconclusive [cytotoxic, full curve]"}]}, {"smiles": "C[C@]12CC[C@H](O[C@@H]3O[C@H](CO)[C@@H](O)[C@H](O)[C@H]3O)CC1CC[C@@H]1C2CC[C@]2(C)[C@@H](C3=CC(=O)OC3)CC[C@]12O", "note": "(stereo partly drawn)", "values": [{"measurement": "Potency", "setting": "[1]", "result": "inactive"}]}, {"smiles": "COc1ccc2c(C(=O)c3ccc(Cl)cc3)c(C)n(CC(=O)O)c2c1", "values": [{"measurement": "Potency", "setting": "[1]", "result": "inconclusive [activator, single point]"}]}, {"smiles": "C=C(C)[C@@]12O[C@@H]1[C@@]1(C)C(=C[C@H]2O)CC[C@@H](O)[C@@H]1C", "values": [{"measurement": "Potency", "setting": "[1]", "result": "inactive"}]}, {"smiles": "CCNC(=O)CC1N=C(c2ccc(Cl)cc2)c2cc(OC)ccc2-n2c(C)nnc21", "note": "(stereo not drawn)", "values": [{"measurement": "Potency", "setting": "[1]", "result": "inconclusive [activator, partial curve, poor fit]"}, {"measurement": "Potency", "setting": "[3]", "result": "inconclusive [cytotoxic, partial curve]"}, {"measurement": "Potency", "setting": "[4]", "result": "active: 6.62 µM"}, {"measurement": "Potency", "setting": "[5]", "result": "inconclusive [cytotoxic, partial curve]"}, {"measurement": "Potency", "setting": "[2]", "result": "inconclusive [cytotoxic, partial curve, poor fit]"}, {"measurement": "Potency", "setting": "[6]", "result": "inconclusive [cytotoxic, partial curve]"}, {"measurement": "Potency", "setting": "[7]", "result": "inconclusive [cytotoxic, partial curve]"}]}, {"smiles": "NC1=NC(=O)N2CC12", "note": "(stereo not drawn)", "values": [{"measurement": "Potency", "setting": "[3]", "result": "inactive"}]}, {"smiles": "COC1CC(O[C@H]2CC[C@]3(C=O)C4CC[C@]5(C)[C@@H](C6=CC(=O)OC6)CC[C@]5(O)[C@@H]4CC[C@@H]3C2)OC(C)C1O[C@@H]1O[C@H](CO)[C@@H](O[C@@H]2O[C@H](CO)[C@@H](O)[C@H](O)[C@H]2O)[C@H](O)[C@H]1O", "note": "(stereo partly drawn)", "values": [{"measurement": "Potency", "setting": "[1]", "result": "inconclusive [activator, partial curve, poor fit]"}]}, {"smiles": "Cc1ccccc1-n1c(Cn2ncc3c(N)ncnc32)nc2cccc(C)c2c1=O", "values": [{"measurement": "Potency", "setting": "[1]", "result": "inactive"}, {"measurement": "Potency", "setting": "[4]", "result": "active: 0.209 µM"}, {"measurement": "Potency", "setting": "[8]", "result": "active: 0.148 µM"}]}, {"smiles": "COC[C@H]1OC(=O)c2coc3c2[C@@]1(C)C1=C(C3=O)C2CCC(=O)[C@@]2(C)C[C@H]1OC(C)=O", "note": "(stereo partly drawn)", "values": [{"measurement": "Potency", "setting": "[1]", "result": "inconclusive [activator, partial curve]"}, {"measurement": "Potency", "setting": "[5]", "result": "inconclusive [cytotoxic, partial curve]"}, {"measurement": "Potency", "setting": "[2]", "result": "active: 1.48 µM"}]}, {"smiles": "Cc1ccc(-n2nccn2)c(C(=O)N2CCN(c3nc4cc(Cl)ccc4o3)CCC2C)c1", "note": "(stereo not drawn)", "values": [{"measurement": "Potency", "setting": "[1]", "result": "inconclusive [activator, full curve, poor fit]"}]}, {"smiles": "CO[C@@H]1[C@H](O)[C@@H](O[C@@H]2C[C@H]3CC[C@@H]4C(CC[C@]5(C)[C@@H](C6=CC(=O)OC6)CC[C@]45O)[C@@]3(C)[C@H](O)C2)O[C@H](C)[C@@H]1O", "note": "(stereo partly drawn)", "values": [{"measurement": "Potency", "setting": "[1]", "result": "inconclusive [activator, partial curve, poor fit]"}]}, {"smiles": "COc1ccc(CC2C(=O)NC(C)C(=O)N(C)C3Cc4ccc(cc4)Oc4cc(ccc4OC4OC(CO)C(O)C(O)C4O)CC(C(=O)NC(C)C(=O)NC(CCC(=O)O)C(=O)N2C)N(C)C3=O)cc1", "note": "(stereo not drawn)", "values": [{"measurement": "Potency", "setting": "[1]", "result": "inconclusive [activator, partial curve]"}]}, {"smiles": "COC1CC(O[C@H]2CC[C@]3(C)C4CC[C@]5(C)[C@@H](C6=CC(=O)OC6)[C@@H](OC(C)=O)C[C@]5(O)C4CC[C@@H]3C2)OC(C)C1O", "note": "(stereo partly drawn)", "values": [{"measurement": "Potency", "setting": "[1]", "result": "inconclusive [activator, partial curve, poor fit]"}]}, {"smiles": "C=C1C(=O)OC2/C=C(\\COO)CC/C=C(\\COC(C)=O)CC(OC(=O)C(C)CC)C12", "note": "(stereo not drawn)", "values": [{"measurement": "Potency", "setting": "[1]", "result": "inactive"}]}, {"smiles": "CCCCC1C(=O)NC(=O)N(C2CCCCC2)C1=O", "note": "(stereo not drawn)", "values": [{"measurement": "Potency", "setting": "[1]", "result": "inactive"}]}, {"smiles": "Cc1ccccc1C1=CCN(C)CC1", "values": [{"measurement": "Potency", "setting": "[1]", "result": "inconclusive [activator, single point]"}]}, {"smiles": "C[C@@H]1[C@H](O)[C@@H](C)/C=C/C=C/CC/C=C/C=C/C=C/C=C/[C@H](O[C@H]2O[C@@H](C)[C@H](O)[C@@H](N)[C@H]2O)C[C@@H]2O[C@](O)(C[C@@H](O)[C@H](O)CC[C@@H](O)C[C@@H](O)C[C@@H](O)CC(=O)O[C@H]1C)C[C@H](O)[C@H]2C(=O)O", "values": [{"measurement": "Potency", "setting": "[1]", "result": "inconclusive [activator, partial curve, poor fit]"}]}]}
